Among the data in PMC8245078, “Development of novel benzofuran-isatin conjugates as potential antiproliferative agents with apoptosis inducing mechanism in Colon cancer” (Journal of Enzyme Inhibition and Medicinal Chemistry, 2021) are inhibition and CC50 values, retold here.

The inhibition is the drop in the measured response relative to a control, in per cent.

Assay [1] concerns NCI-H322M. Description: NCI single dose screening (10 µM). The note with it: Homo sapiens, read-out: GI% (cell growth inhibition percentage). From the text: In the present investigation, the chemical structures for the novel benzofuran-isatin conjugates were presented to the Developmental Therapeutics Program at the National Cancer Institute (NCI), USA. Seven conjugates (5b–d,7a, 7b, 7d and 7g) were selected, according to NCI’s-DTP selection guidelines, for evaluating their potential in vitro anticancer activity against a panel of fifty-five human cancer cell lines representing nine tumour panels according to the NCI, Bethesda, Drug Evaluation Branch protocol[57]^,[58].
Firstly, the seven selected conjugates (5b–d,7a, 7b, 7d and 7g) were screened at a dose of 10 μM for their antiproliferative activity against a panel of fifty-five cancer cell lines.
(§1) 2.1. NCI, USA Anticancer Screening
The cytotoxicity in vitro assay was conducted at National Cancer Institute (NCI), Bethesda, USA against 59 cancer cell lines. The one-dose data were reported as a mean graph of the percent growth of treated cells. The number reported for the one-dose assay was growth relative to the no-drug control and relative to the time zero number of cells. This allowed detection of both growth inhibition (values between 0 and 100) and lethality (values less than 0). For example, a value of 100 means no growth inhibition. A value of 40 would mean 60% growth inhibition. A value of 0 means no net growth over the course of the experiment. A value of -40 would mean 40% lethality. A value of -100 means all cells were dead.
The human tumor cell lines of the cancer screening panel were grown in RPMI 1640 medium containing 5% fetal bovine serum and 2 mM L-glutamine. For a typical screening experiment, cells were inoculated into 96 well microtiter plates in 100 μL at plating densities ranging from 5,000 to 40,000 cells/well depending on the doubling time of individual cell lines. After cell inoculation, the microtiter plates were incubated at 37° C, 5 % CO2, 95 % air and 100 % relative humidity for 24 h prior to addition of experimental drugs. After 24 h, two plates of each cell line were fixed in situ with TCA, to represent a measurement of the cell population for each cell line at the time of drug addition (Tz). Experimental drugs were solubilized in dimethyl sulfoxide at 400-fold the desired final maximum test concentration and stored frozen prior to use. At the time of drug addition, an aliquot of frozen concentrate was thawed and diluted to twice the desired final maximum test concentration with complete medium containing 50 μg/mL gentamicin.
Additional four, 10-fold or ½ log serial dilutions were made to provide a total of five drug concentrations plus control. Aliquots of 100 μL of these different drug dilutions were added to the appropriate microtiter wells already containing 100 μL of medium, resulting in the required final drug concentrations. Following drug addition, the plates were incubated for an additional 48 h at 37°C, 5 % CO2, 95 % air, and 100 % relative humidity. For adherent cells, the assay was terminated by the addition of cold TCA. Cells were fixed in situ by the gentle addition of 50 μL of cold 50 % (w/v) TCA (final concentration, 10 % TCA) and incubated for 60 minutes at 4°C.
The supernatant was discarded, and the plates were washed five times with tap water and air dried. Sulforhodamine B (SRB) solution (100 μL) at 0.4 % (w/v) in 1 % acetic acid was added to each well, and plates were incubated for 10 minutes at room temperature. After staining, unbound dye was removed by washing five times with 1 % acetic acid and the plates were air dried. Bound stain was subsequently solubilized with 10 mM trizma base, and the absorbance was read on an automated plate reader at a wavelength of 515 nm. For suspension cells, the methodology was the same except that the assay was terminated by fixing settled cells at the bottom of the wells by gently adding 50 μL of 80 % TCA (final concentration, 16 % TCA).
Using the seven absorbance measurements [time zero, (Tz), control growth, (C), and test growth […]

For assay [2], the system named is NCI-H322M. The settings on record: Homo sapiens, five-dose test, read-out: LC50 (the source's name). The method, then: Accordingly, 5d was promoted to the five-dose (0.01–100 µM) screening assay. […] Where, GI50 values represents molar concentration which produces 50% inhibitory effect in the net cell growth; TGI (cytostatic activity) is the molar concentration with total growth inhibition and LC50 is the cytotoxicity parameter that reflects the molar concentration that results in 50% net cell death. In addition, the mean graph midpoints (MG-MID), representing the GI50 average for the individual subpanels as well as the full panel cell lines were calculated giving an average potency parameter for the examined compound 5d, (Table 3). Furthermore, by dividing the full panel MID by their individual subpanel MID, the selectivity index of compound 5d was calculated and was used to measure the selectivity of 5d towards different cancer cell subpanels.
as §1
The cytotoxicity in vitro assay was conducted at National Cancer Institute (NCI), Bethesda, USA against 59 cancer cell lines. The one-dose data were reported as a mean graph of the percent growth of treated cells. […]
The supernatant was discarded, and the plates were washed five times with tap water and air dried. […] Bound stain was subsequently solubilized with 10 mM trizma base, and the absorbance was read on an automated plate reader at a wavelength of 515 nm. […]

Where [3] appears, read: Non-small cell lung cancer, single dose 10^−5 M.

Like-named read-outs stand apart in the source and are kept apart here.

Consider `Cc1c(C(=O)N/N=C2\C(=O)Nc3ccc(F)cc32)oc2ccccc12` [Compound 5b], for which the inhibition at 10 µM in the assay with NCI-H322M [1] (setting [3]) was below 10%.
Turning to `Cc1c(C(=O)N/N=C2\C(=O)Nc3ccc(Br)cc32)oc2ccccc12` [Compound 5c], the inhibition at 10 µM in the assay on NCI-H322M [1] (setting [3]) was found to be 31.8%.
Regarding `COc1ccc2c(c1)/C(=N/NC(=O)c1oc3ccccc3c1C)C(=O)N2` [Compound 5d], the CC50 with NCI-H322M [2] was above 100 µM. Moreover, the inhibition at 10 µM in the assay with NCI-H322M [1] (setting [3]) was 69.4%.
Consider `Cc1c(C(=O)N/N=C2\C(=O)N(C)c3ccccc32)oc2ccccc12` [Compound 7a], for which, in the assay on NCI-H322M [1] (setting [3]), the inhibition at 10 µM was below 10%.
Take `CCCN1C(=O)/C(=N\NC(=O)c2oc3ccccc3c2C)c2ccccc21` [Compound 7b]: the inhibition at 10 µM in the assay on NCI-H322M [1] came out at 11.9%.
In the case of `Cc1c(C(=O)N/N=C2\C(=O)N(Cc3ccccc3)c3ccccc32)oc2ccccc12` [Compound 7d], the inhibition at 10 µM with NCI-H322M [1] came out at 17.8%.
For the compound `CCCN1C(=O)/C(=N\NC(=O)c2oc3ccccc3c2C)c2cc(Br)ccc21` [Compound 7g], in the assay on NCI-H322M [1], the inhibition at 10 µM is below 10%.
